This is one part of the list.
The compounds below were run on T1, C. trachomatis L2/434/Bu expressing GFP (CTL2-GFP). Conditions: total inclusion area; 28.5 h, 10 µM; inhibitor.
T1 construct: L2/434/Bu GFP intracellular growth in HeLa cells
Set-up: species or system HeLa; C. trachomatis total inclusion area by high-content imaging, normalised to DMSO
In short: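 Bulk GFP and resorufin signals were read first. Wells were then fixed, stained with Hoechst and imaged to detect GFP inclusions and host nuclei. MICs followed the previously described calculation.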

Structure (SMILES) | % of control remaining
OCCN(Cc1cccnc1)Cc1cccn1-c1ccc(F)cc1 [CBK283023] | 89.4111
COCCn1c(SCc2cc(=O)oc3cc(C)ccc23)nnc1-c1ccc(Cl)cc1 [CBK297517] | 105.917
CC(C)C(=O)Nc1cc2ccccc2c(-c2cc(F)cc(F)c2)n1 [CBK085775] | 92.8447
CCN(CC)c1c(C)nc2ccc(C(=O)N3CCN(C)CC3)cn12 [CBK145955] | 96.7784
N#CC1=C(N)N2C(=C(C#N)C13CCN(Cc1ccccc1)CC3)Nc1ccccc12 [CBK267241] | 86.6402
CC(C)NC(=O)C1(Cc2ccc(-c3ccccc3)cc2)CCN(C(=O)C2CCC2)CC1 [CBK285750] | 101.517
CSCCN1CCN(c2nccnc2Oc2ccc(F)cc2)CC1 [CBK083028T] | 87.7831
CCOC(=O)c1cnc2c(Cl)cc(Cl)cc2c1NCCN1CCOCC1 [CBK307278] | 62.7751
c1ccc(NCCOc2cncc(N3CCCC3)n2)cc1 [CBK115670] | 87.3244
COc1cc2c(cc1NC(=O)C(C)Oc1ccccc1)oc1ccccc12 (stereo not drawn) [CBK264061] | 87.3853
COc1ccc(CNc2nc(C)n[nH]2)cc1Cl [CBK288036] | 115.663
CCOC(=O)c1cccc(NS(=O)(=O)c2cc(Br)ccc2OC)c1 [CBK034336] | 91.6622
CC(C)(CC(=O)O)CC(=O)Nc1ccc(-c2nc3ccccc3s2)cc1 [CBK299796] | 112.083
O=C(O)c1csc(S(=O)(=O)Nc2ccccc2C(=O)Nc2ccc3c(c2)OCO3)c1 [CBK295655] | 93.0231
CC(C)(C)c1n[nH]c(C2CN(C(=O)CCc3ccco3)CCO2)n1 (stereo not drawn) [CBK305204] | 20.1667
CC(C)C(CO)NC(=O)C1(Cc2ccc(-c3ccc(F)c(F)c3)cc2)CCOCC1 (stereo not drawn) [CBK286525] | 77.622
CCOC(=O)c1sc(-c2ccc(Br)cc2)nc1O [CBK075087] | 76.0957
Cc1conc1C(=O)N1CCCCC1CN1CCOCC1 (stereo not drawn) [CBK304771] | 38.6156
Cc1cc(C(=O)CSc2nc(=O)cc(O)n2CC(C)C)c(C)n1C [CBK295649] | 106.677
CCOc1ccc(NC(=O)CSc2nc3nc(C)cc(C)n3n2)cc1 [CBK268278] | 105.549
Clc1ccccc1CN1CCC(n2cnc3cccnc32)CC1 [CBK283967] | 90.8172
CC(=O)N(C)c1nc(-c2ccccc2C)ccc1C(=O)N(C)C [CBK106350] | 92.5657
CCOc1cc(OCC)cc(C(=O)N2CCC3(CC2)CC(=O)c2ccc(OCC)cc2O3)c1 [CBK168014] | 101.791
CCc1nn(CC(=O)N2CCCCC2)c(=O)c2cc3ccsc3n12 [CBK284119] | 87.8205
COc1ccc(C(=O)Nc2cccnc2N2CCNCC2)cc1 [CBK029421T] | 73.397
Cc1nc2cc(C(=O)N3CCCCC3CN3CCOCC3)ccc2[nH]1 (stereo not drawn) [CBK304219] | 56.8052

Structure (SMILES) | % of control remaining
Clc1ccc(C2N(Cc3ccccc3)CCC3CCCCN32)cc1Cl (stereo not drawn) [CBK028769] | 55.0008
Cc1ccc(S(=O)(=O)Nc2sccc2C(=O)O)cc1 [CBK042244] | 116.926
CCOC(=O)N/N=C1\CCSc2sccc21 [CBK006300] | 46.1681
Cc1ncc(S(=O)(=O)N2CCC(OCc3ccncc3)C2)s1 (stereo not drawn) [CBK305483] | 94.4097
Clc1ccc(SCCCSc2ncccn2)cc1 [CBK266400] | 121.645
O=C(O)C(CC1COc2ccccc2O1)C(=O)O (stereo not drawn) [CBK276280] | 107.272
COC(=O)c1cn([C@H]2CO[C@H]3[C@@H]2OC[C@@H]3NS(=O)(=O)Cc2ccccc2)nn1 [CBK289498] | 105.39
CCOC(=O)C1CCCCN1Cc1ccc(OC)c(O)c1 (stereo not drawn) [CBK261560] | 102.848
O=C(NCCc1c[nH]cn1)NC12CC3CC(CC(C3)C1)C2 [CBK269880] | 74.4795
O=C(C[C@@H]1CCNC[C@@H]1Cc1cc(-c2ccccc2)on1)NC1CC1 [CBK289146] | 96.1839
CC(=O)[C@H]1C[C@@H](CC(=O)N2CCN(c3ccc(C(F)(F)F)cc3)CC2)C1(C)C [CBK091330] | 112.843
CNC(=O)c1ccc(-c2cnc(NCC3CCN(C(=O)OC(C)(C)C)CC3)cn2)cc1 [CBK173726] | 131.496
COc1ccc(-c2nc(NC(=O)CSc3n[nH]c(N)n3)ns2)cc1 [CBK267236] | 120.902
CCCNc1nc(-c2cccc(O)c2)cn2ccnc12 [CBK066395] | 61.3109
CCOC(=O)c1sc(NS(=O)(=O)c2cccc3cccnc23)nc1C [CBK047443] | 88.0075
COc1ccc(-c2ccc(OC)cc2C(=O)Nc2ccc3c(c2)N(C)C(=O)CO3)cc1 [CBK285650] | 82.9736
Fc1ccccc1COc1cccc(CNCc2ccccn2)c1 [CBK268552C] | 101.963
O=[N+]([O-])c1ccc(/C=N/c2ccc(Cc3ccc(/N=C/c4ccc([N+](=O)[O-])s4)cc3)cc2)s1 [CBK261228] | 105.054
Cc1cc(S(=O)(=O)NCCn2nc(C)c(C)c2C)ccc1F [CBK281382] | 106.162
O=C(O)COc1ccccc1/C=N/n1c(S)nnc1-c1cccnc1 [CBK265337] | 107.214
COc1cc(NC(=O)C2CCN(S(=O)(=O)c3cccs3)CC2)c(Cl)cc1C(=O)O [CBK297085] | 83.6268
O=c1cc(N2CCCCC2)cnn1CCCn1cccn1 [CBK306907] | 119.616
CC1CCc2sc(C(=O)N3CCC4(CC3)NC(=O)NC4=O)cc2C1 (stereo not drawn) [CBK304992] | 58.191
O=C(Cn1cc(Br)ccc1=O)NC1CCN(CCc2ccccc2)CC1 [CBK305887] | 37.775
CCCC/C=C/c1cncc(N2CCN(c3ccccc3C#N)CC2)n1 [CBK037369] | 90.5825

Source: PMC12040169 (PLOS Biology, 2025)
